Where “and” joins values, the source holds several entries; their conditions need not be identical. Identical values can stand only once.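 These data come from cells grown in 96-well plates and exposed to compound for 48 hours at five concentrations. GI50 = concentration required for 50% inhibition of growth.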 Calls of active or inactive are those of the source. Rule as the data show it: active = GI50 up to about 1.1 µM and inactive = higher.

The GI50 is the concentration at which growth is held to half of that of the control.

The assay deals with NCI-H322M. Put plainly: DTP human tumour cell line panel, 48 h.
With `COC(=O)c1ccc(NCc2c(O)ccc(O)c2Br)cc1Cl`, the GI50 was inactive: 54.2 µM. Then `C=CCN1C(=O)/C(=C/c2ccccc2)NC1=S`, with inactive: > 100 µM.

Turning to `CN1C(=O)C(C(=O)Nc2ccccn2)C2C[C@@]1(C)Oc1ccccc12` (some centres not stated), the GI50 is inactive: > 100 µM.

On to `C/C(CC(=O)Nc1ccc(C)c(C)c1)=N\NC(N)=O`, for which the GI50 was inactive: > 100 µM.

With `CN(C)CCCCCNc1c2ccccc2nc2cccc([N+](=O)[O-])c12`, the GI50 is active: 0.0031 µM. As for `S=C(Nc1ccccc1)N(/N=C/C=C/c1ccccc1)c1nnc(-c2ccccc2)c(-c2ccccc2)n1`, the GI50 is inactive: 96.2 µM. Regarding `CCOC(=O)/C=C(/OCC)[C@@H]1C(C(=O)c2ccc(Cl)cc2)[C@H]1/C(=C\C(=O)OCC)OCC` (some centres not stated), the GI50 was inactive: > 100 µM. Consider `COC(=O)C1=C(C)NC(C)=C(C(=O)OC)C1c1cccc(/[N+]([O-])=C/c2ccccc2)c1`, for which the GI50 is inactive: > 100 µM.

Turning to `O=C1Nc2ccccc2/C1=C/c1ccccc1`, the GI50 is inactive: 15.9 µM. For `COc1cc2ccnc(-c3c4ccccc4c(N)c4c(OC)c(OC)ccc34)c2cc1OC`, the GI50 was inactive: 2.43 µM.

Consider `O=c1c2ccccc2nnn1-c1n[nH]c2ccccc12`, for which the GI50 is inactive: > 100 µM. Then `O=c1ccs[nH]1`, with inactive: 45.2 µM; and `CCC(C)C(=O)c1c(O)c(C/C=C(\C)CCC=C(C)C)c(O)c2c(C(O)CC)cc(=O)oc12` (configuration not stated), with inactive: 3.18 µM; and `Cc1cc(N(CCC#N)CCC#N)ccc1/C=C(\N=[N+]=[N-])C(=O)NC(=O)COc1ccccc1`, with inactive: > 100 µM. Then `Cc1ccc(S(=O)(=O)N/N=C(\C(=O)Nc2cccc([N+](=O)[O-])c2)c2nc3ccc([N+](=O)[O-])cc3nc2O)cc1`, with inactive: > 100 µM; and `CCOc1ccc(C2c3[nH]c4ccccc4c3CCN2C(=O)c2cccs2)cc1` (configuration not stated), with inactive: 15.1 µM. Then `CC(=O)/C(=N\O)C(=O)Nc1ccc(Cl)cc1Cl`, with inactive: > 100 µM; and `CC(=O)NN/C=N/C(C#N)=C(\N)C#N`, with inactive: > 100 µM.

`CCOC(C[C@H](O)[C@H]1COC(=S)S1)OCC`: the GI50 was inactive: > 100 µM.

`COC1=CC(c2ccc(Br)[nH]2)=N/C1=C/NCC(C)C`: the GI50 was inactive: 3.41 µM. Then `Cc1ccc(S(=O)(=O)N/N=C(\c2nc3ccc([N+](=O)[O-])cc3[nH]c2=O)C(O)c2ccc([N+](=O)[O-])cc2)cc1` (configuration not stated), with inactive: > 100 µM. As for `NC1CCCCC1NCCNC1CCCCC1N` (configuration not stated), the GI50 is inactive: 80.4 µM. Regarding `Cc1cnc(Cl)nc1C(C#N)c1nc2ccccc2n1C` (configuration not stated), the GI50 is inactive: 30.3 µM. For `CC(C)c1ccc(O)c(Cc2cc(C(C)C)cc(Cc3cc(C(C)C)ccc3O)c2O)c1` the value was inactive: 1.84 µM; for `C#CC1(OC(C)=O)CCC2C3CC=C4C=C(OC(C)=O)CCC4(C)C3CCC21C` (configuration not stated), inactive: 31.6 µM; for `C(=C(c1ccc(OC2CCCCO2)cc1)c1ccc(OC2CCCCO2)cc1)c1ccccc1` (configuration not stated), inactive: 1.15 µM. On to `O=C1CC(/C=C/c2ccco2)=C(O)C1=O`, for which the GI50 was inactive: 12.3 µM.

On to `CN1C(=S)CSc2ccccc21`, for which the GI50 is inactive: > 100 µM. For `CC(=O)OCC1(C)C(O)CCC2(C)C1CCC1CC3CC12CCC3(O)CO` (configuration not stated) the value was inactive: > 100 µM; for `N#CCCN(CCC#N)c1ccc(/C=N\c2ccc(F)cc2)cc1`, inactive: > 66.7 µM. Turning to `NC(=S)N/N=C1\C(=O)N(c2cccc([N+](=O)[O-])c2)C(=O)C1C(=O)Nc1cccc([N+](=O)[O-])c1` (configuration not stated), the GI50 is inactive: > 100 µM. As to `CCOC(=O)CN1C(=O)c2ccc(NC(=O)C(=O)O)cc2S1(=O)=O`, the GI50 is inactive: > 100 µM. Regarding `N#CC(c1cc2c(cc1Br)OCO2)N1CCOCC1` (configuration not stated), the GI50 was inactive: 34.2 µM. For `CC(=O)NNc1nc(C)c(C(/C=C/c2ccc([N+](=O)[O-])cc2)=N/N)s1` the value was inactive: 84.3 µM; for `CNC(=O)OCc1cc2ccncc2c2c1[nH]c1ccccc12`, inactive: > 100 µM; for `CCN(CC)CCC(=O)c1ccc(Oc2ccccc2)cc1`, inactive: > 100 µM. Turning to `CNC1=Nc2ccc(Cl)cc2C(c2ccccc2)=NN1C`, the GI50 was inactive: > 100 µM. Then `COc1ccc2nc3cc(Cl)ccc3c(Sc3ccccc3[N+](=O)[O-])c2c1`, with inactive: > 100 µM. Then `CCCCCCc1cc2cc(C(=O)Nc3cccc(F)c3)c(=N)oc2cc1O`, with inactive: 2.69 µM; and `COC(=O)C(Cc1ccccc1)NP(=O)(O)OCC1OC(n2ccc(N)nc2=O)C(O)C1O` (configuration not stated), with inactive: > 100 µM; and `Cc1ccn2c(=O)cc(CN3CCOCC3)nc2c1`, with inactive: > 100 µM. For `O=C1/C(=C/c2ccccc2)CN(C(=O)C(F)(F)F)C/C1=C\c1ccccc1` the value was inactive: 6.87 µM; for `CCOP(=O)(OCC)C(c1ccccc1)N(C(=O)NC(F)(F)F)c1cccc(F)c1` (configuration not stated), inactive: > 100 µM; for `O=C(Nc1cccc2c1[nH]c1c(-c3ccccc3)nccc12)c1ccccc1[N+](=O)[O-]`, inactive: 88.1 µM. Regarding `COc1ccc(C2C(=O)C(Cl)N2Nc2nc(C)cc(O)n2)cc1OC` (configuration not stated), the GI50 is inactive: 49.7 µM. For `Cc1nn(-c2ccccc2)c2nc3ccc(Cl)cc3c(-c3ccccc3)c12` the value was inactive: > 100 µM; for `CCOC(=O)C1=C(C)NC(=O)NC1c1ccc(N(CCCl)CCCl)cc1Cl` (configuration not stated), inactive: 18.1 µM; for `CCOC(=O)NN(C(=O)OCC)C(C(=O)C1=CCCCC1)N(NC(=O)OCC)C(=O)OCC`, inactive: > 100 µM.

With `Nc1n[nH]c2c1Cc1c(n(Cc3ccc(Cl)cc3)c3ccccc13)C(=O)N2`, the GI50 was inactive: 13.9 µM.

As for `Cn1cnc([N+](=O)[O-])c1Sc1nnnn1-c1ccccc1`, the GI50 was inactive: 31.9 µM. Take `CC1OC(OC2C(OC(=O)[C@]34CCC(C)(C)C[C@H]3C3=CC[C@@H]5[C@@]6(C)CC[C@H](OC7OC(CO)C(O)C(O)C7OC7OC(CO)C(O)C(O)C7O)C(C)(C)[C@@H]6CC[C@@]5(C)[C@]3(C)CC4)OCC(O)C2O)C(O)C(O)C1OC1OCC(O)C(OC2OCC(O)C(O)C2O)C1O` (some centres not stated): the GI50 was inactive: 3.01 µM and inactive: 2.64 µM.

Take `COC1C=COC2(C)Oc3c(C)c(O)c4c(O)c(c(C5SCCS5)c(O)c4c3C2=O)NC(=O)C(C)=C/C=C\C(C)C2OC(C)(C)OC(C2C)C(C)C(OC(C)=O)C1C` (configuration not stated): the GI50 was inactive: 16.6 µM.

On to `COC(=O)C1(C)C=CC(=O)C2(C)C1C(O)C1OC3CC(c4ccoc4)C(C)=C3C1(C)C2CC(=O)O` (configuration not stated), for which the GI50 is inactive: > 100 µM. Regarding `C=CC(=O)NCCSCCCOC1(C(=O)O)CC(O)C(NC(C)=O)C(C(O)C(O)CO)O1` (configuration not stated), the GI50 is inactive: > 100 µM. As to `COC(=O)c1cc(/C=C\c2cc(OC)ccc2OC)ccc1OC`, the GI50 is inactive: 36 µM.

Turning to `COc1cc(Nc2nc3cc(N)cc(N)c3nc2-c2ccccc2)cc(OC)c1OC`, the GI50 was inactive: 24.8 µM.

With `O=C1Nc2ccccc2/C1=N/Nc1ccccc1[N+](=O)[O-]`, the GI50 was inactive: 59.6 µM.
